# Measurements taken from the supplement of paper PMC4967469.
# IC50 is the fitted dose that halves viability relative to control wells, and lower means more sensitive; a fit beyond the top or the lowest dose is shown as a bound at that dose. The AUC spans the tested range (256-fold, ending at the top dose) of the same fit; it is 1 without any effect and falls as sensitivity rises. Any top dose called inferred is not printed in the source and was worked back from the curve model. For part of these data: An entry number marks a drug with two screens in the source, which often give different values.
# Columns and labels:
# Assay in all cases: Viability of human cancer cell lines after 72 h of drug (GDSC screen)
# SB-525334 = compound: Cc1cccc(-c2[nH]c(C(C)(C)C)nc2-c2ccc3nccnc3c2)n1 [SB-525334]; settings: top dose 20 µM; top dose inferred
# Method: (§1)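 Human cancer cell lines in 384-well plates, medium with 10% serum, drug for 72 h over a 256-fold dose range (nine 2-fold or five 4-fold steps up to the top dose). Adherent lines were fixed and stained with the nucleic acid dye Syto60, suspension lines read with resazurin; signal relative to control wells, capped at 0 and 100%. One two-parameter sigmoid per drug and line, fitted in a mixed model over all curves with the slope shared within a line.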
# VX-702 = compound: NC(=O)c1ccc(N(C(N)=O)c2c(F)cccc2F)nc1-c1ccc(F)cc1F [VX-702]; settings: top dose 2 µM; top dose inferred
# Method: as §1
# BIRB 0796 = compound: Cc1ccc(-n2nc(C(C)(C)C)cc2NC(=O)Nc2ccc(OCCN3CCOCC3)c3ccccc23)cc1 [BIRB 0796]; settings: top dose 10 µM; top dose inferred
# Method: as §1
# Olaparib = compound: O=C(c1cc(Cc2n[nH]c(=O)c3ccccc23)ccc1F)N1CCN(C(=O)C2CC2)CC1 [Olaparib]
# Method: as §1
# Shikonin = compound: CC(C)=CC[C@@H](O)C1=CC(=O)c2c(O)ccc(O)c2C1=O [Shikonin]; settings: top dose 16 µM; top dose inferred
# Method: as §1
# BMS-536924 = compound: Cc1cc(N2CCOCC2)cc2[nH]c(-c3c(NC[C@@H](O)c4cccc(Cl)c4)cc[nH]c3=O)nc12 [BMS-536924]; settings: top dose 4 µM; screen: GDSC drug entry 1091; top dose inferred
# Method: as §1
# Wee1 inhibitor 681640 = compound: O=C1NC(=O)c2c1c(-c1ccccc1Cl)cc1[nH]c3ccc(O)cc3c21 [Wee1 inhibitor 681640]; settings: top dose 2 µM; top dose inferred
# Method: as §1
# [1] = top dose 5 µM, screen: GDSC drug entry 1017, top dose inferred
# [2] = top dose 10 µM, screen: GDSC drug entry 1495
Cell Line,AUC (SB-525334),IC50 (SB-525334),AUC (VX-702),IC50 (VX-702),AUC (BIRB 0796),IC50 (BIRB 0796),AUC (Olaparib; [1]),IC50 (Olaparib; [1]),AUC (Olaparib; [2]),IC50 (Olaparib; [2]),AUC (Shikonin),IC50 (Shikonin),AUC (BMS-536924),IC50 (BMS-536924),AUC (Wee1 inhibitor 681640),IC50 (Wee1 inhibitor 681640)
"42-MG-BA (glioma, adherent)",0.939,> 20 µM,0.985,> 2 µM,0.968,> 10 µM,0.923,> 5 µM,0.884,> 10 µM,0.599,1.9 µM,0.898,> 4 µM,0.948,> 2 µM
"201T (lung adenocarcinoma, adherent)",0.942,> 20 µM,0.95,> 2 µM,0.961,> 10 µM,0.976,> 5 µM,,,0.474,0.836 µM,,,0.962,> 2 µM
"647-V (bladder, adherent)",0.963,> 20 µM,0.986,> 2 µM,0.978,> 10 µM,0.978,> 5 µM,0.89,> 10 µM,0.345,0.37 µM,0.984,> 4 µM,0.959,> 2 µM
"BALL-1 (B-cell leukaemia, suspension)",,,0.997,> 2 µM,0.997,> 10 µM,0.988,> 5 µM,0.973,> 10 µM,,,0.997,> 4 µM,0.995,> 2 µM
"CL-40 (large intestine, adherent)",,,0.973,> 2 µM,0.976,> 10 µM,0.947,> 5 µM,0.925,> 10 µM,,,0.855,> 4 µM,0.966,> 2 µM
"CML-T1 (chronic myeloid leukaemia, suspension)",,,0.989,> 2 µM,0.992,> 10 µM,0.915,> 5 µM,0.768,3.15 µM,,,0.963,> 4 µM,0.967,> 2 µM
"COLO-205 (large intestine, suspension)",0.972,> 20 µM,0.968,> 2 µM,0.988,> 10 µM,0.964,> 5 µM,0.98,> 10 µM,0.378,0.465 µM,,,0.963,> 2 µM
"COR-L321 (lung, suspension)",0.956,> 20 µM,0.977,> 2 µM,0.983,> 10 µM,0.971,> 5 µM,0.961,> 10 µM,,,0.988,> 4 µM,0.987,> 2 µM
"CRO-AP2 (B-cell lymphoma, suspension)",,,0.914,> 2 µM,0.914,> 10 µM,0.958,> 5 µM,0.948,> 10 µM,,,0.86,2.66 µM,0.976,> 2 µM
"DU-145 (prostate, adherent)",0.968,> 20 µM,0.521,0.144 µM,0.783,4.76 µM,,,,,0.261,0.19 µM,0.928,> 4 µM,0.572,0.202 µM
"HT-1080 (fibrosarcoma, adherent)",0.98,> 20 µM,0.987,> 2 µM,0.963,> 10 µM,,,,,0.244,0.201 µM,0.988,> 4 µM,0.852,1.3 µM
"IGROV-1 (ovary, adherent)",,,0.972,> 2 µM,0.953,> 10 µM,0.973,> 5 µM,0.899,> 10 µM,,,0.878,> 4 µM,0.894,> 2 µM
"JEKO-1 (B-cell lymphoma, suspension)",,,0.932,> 2 µM,0.987,> 10 µM,,,,,,,0.852,2.9 µM,0.927,> 2 µM
"KARPAS-1106P (B-cell lymphoma, suspension)",,,0.936,> 2 µM,0.985,> 10 µM,0.938,> 5 µM,0.979,> 10 µM,,,0.976,> 4 µM,0.98,> 2 µM
"KMS-11 (myeloma, suspension)",0.954,> 20 µM,0.978,> 2 µM,0.99,> 10 µM,0.967,> 5 µM,0.986,> 10 µM,,,0.704,0.851 µM,0.979,> 2 µM
"KP-1N (pancreas, adherent)",,,0.986,> 2 µM,0.976,> 10 µM,0.986,> 5 µM,0.896,> 10 µM,0.519,1.13 µM,0.944,> 4 µM,0.982,> 2 µM
"MEL-HO (melanoma, adherent)",,,0.972,> 2 µM,0.984,> 10 µM,0.976,> 5 µM,0.913,> 10 µM,,,0.96,> 4 µM,0.92,> 2 µM
"MHH-CALL-2 (B-cell leukaemia, suspension)",,,0.997,> 2 µM,0.996,> 10 µM,0.994,> 5 µM,0.997,> 10 µM,,,0.997,> 4 µM,0.987,> 2 µM
"MIA-PaCa-2 (pancreas, adherent)",0.985,> 20 µM,0.96,> 2 µM,0.802,5.48 µM,0.941,> 5 µM,0.962,> 10 µM,0.31,,,,0.959,> 2 µM
"MOLM-16 (acute myeloid leukaemia, suspension)",,,0.876,1.58 µM,0.981,> 10 µM,0.933,> 5 µM,0.954,> 10 µM,,,0.834,2.17 µM,0.786,0.753 µM

Cell Line,AUC (SB-525334),IC50 (SB-525334),AUC (VX-702),IC50 (VX-702),AUC (BIRB 0796),IC50 (BIRB 0796),AUC (Olaparib; [1]),IC50 (Olaparib; [1]),AUC (Olaparib; [2]),IC50 (Olaparib; [2]),AUC (Shikonin),IC50 (Shikonin),AUC (BMS-536924),IC50 (BMS-536924),AUC (Wee1 inhibitor 681640),IC50 (Wee1 inhibitor 681640)
"MOLT-16 (T-cell lymphoblastic leukaemia, suspension)",,,0.97,> 2 µM,0.992,> 10 µM,0.909,4.46 µM,0.816,4.2 µM,,,0.986,> 4 µM,0.787,0.686 µM
"NCI-H146 (small cell lung carcinoma, suspension)",,,0.942,> 2 µM,0.994,> 10 µM,0.975,> 5 µM,0.981,> 10 µM,,,0.993,> 4 µM,0.981,> 2 µM
"NCI-H647 (non-small cell lung carcinoma, adherent)",0.969,> 20 µM,0.985,> 2 µM,0.984,> 10 µM,0.974,> 5 µM,0.831,6.76 µM,0.549,1.37 µM,,,0.925,> 2 µM
"NCI-H835 (lung carcinoid, suspension)",,,0.983,> 2 µM,0.989,> 10 µM,0.987,> 5 µM,0.969,> 10 µM,,,0.968,> 4 µM,0.964,> 2 µM
"NCI-H1105 (small cell lung carcinoma, suspension)",,,0.981,> 2 µM,0.982,> 10 µM,0.949,> 5 µM,0.927,> 10 µM,,,0.977,> 4 µM,0.974,> 2 µM
"NCI-H1341 (small cell lung carcinoma, suspension)",,,0.992,> 2 µM,0.991,> 10 µM,0.991,> 5 µM,0.974,> 10 µM,,,0.799,1.6 µM,0.992,> 2 µM
"NCI-H1693 (lung adenocarcinoma, adherent)",0.828,> 20 µM,0.969,> 2 µM,0.941,> 10 µM,,,,,0.78,11.3 µM,0.934,> 4 µM,0.97,> 2 µM
"NCI-H2023 (lung adenocarcinoma, adherent)",0.964,> 20 µM,0.94,> 2 µM,0.972,> 10 µM,,,,,0.865,> 16 µM,0.901,> 4 µM,0.929,> 2 µM
"NCI-H2052 (mesothelioma, adherent)",0.98,> 20 µM,0.978,> 2 µM,0.969,> 10 µM,0.978,> 5 µM,,,0.379,0.421 µM,,,0.97,> 2 µM
"NCI-H3122 (lung adenocarcinoma, adherent)",0.887,> 20 µM,0.987,> 2 µM,0.987,> 10 µM,0.986,> 5 µM,0.953,> 10 µM,0.384,0.475 µM,,,0.956,> 2 µM
"OACM5-1 (oesophagus, semi-adherent)",0.906,> 20 µM,0.984,> 2 µM,0.976,> 10 µM,0.986,> 5 µM,0.98,> 10 µM,,,0.856,3.88 µM,0.976,> 2 µM
"PA-1 (ovary, adherent)",0.974,> 20 µM,0.993,> 2 µM,0.977,> 10 µM,0.924,4.98 µM,,,0.271,0.267 µM,,,0.956,> 2 µM
"RCH-ACV (B-cell leukaemia, suspension)",,,0.909,1.94 µM,0.973,> 10 µM,0.868,3.27 µM,0.868,6.54 µM,,,0.901,3.57 µM,0.952,> 2 µM
"RH-18 (rhabdomyosarcoma, adherent)",,,0.976,> 2 µM,0.981,> 10 µM,0.976,> 5 µM,0.964,> 10 µM,,,0.913,> 4 µM,0.975,> 2 µM
"SK-MEL-31 (melanoma, adherent)",,,0.985,> 2 µM,0.913,> 10 µM,0.985,> 5 µM,0.959,> 10 µM,,,0.965,> 4 µM,0.983,> 2 µM
"SK-OV-3 (ovary, adherent)",0.949,> 20 µM,0.981,> 2 µM,0.967,> 10 µM,,,,,0.634,2.59 µM,0.917,> 4 µM,0.942,> 2 µM
"SNU-61 (large intestine, adherent)",0.947,> 20 µM,0.985,> 2 µM,0.985,> 10 µM,0.948,> 5 µM,0.981,> 10 µM,,,0.979,> 4 µM,0.981,> 2 µM
"SUP-B8 (B-cell leukaemia, suspension)",,,0.989,> 2 µM,0.988,> 10 µM,0.987,> 5 µM,0.966,> 10 µM,,,0.986,> 4 µM,0.861,1.67 µM
"T47D (breast, adherent)",0.889,> 20 µM,0.969,> 2 µM,0.961,> 10 µM,,,,,0.39,0.423 µM,0.884,> 4 µM,0.975,> 2 µM
"TC-YIK (cervix, suspension)",,,0.99,> 2 µM,0.98,> 10 µM,0.975,> 5 µM,0.922,> 10 µM,,,0.845,2.33 µM,0.987,> 2 µM
